Consider 41 variants from the RNAGym collection of RNA variant scans (doi:10.7554/elife.90254).

The source gives no read counts; variants with many changes may rest on few reads.

First the molecules themselves.
B1: OR4K15 (parent)
chain: GUUAACGGUCAUAGGCCAUGGAAACUAGGAGCACCAUUUCGCUGCCAGUGAAGAAAUGAACAAAGAAAAUCUGGGCCAGGCAGGCAUCAAAAGAAAUAGUCUUGCGCUCAACCAGAAAGUCUGUAAUCAUUUUAAGGGUA

In the data set the parent is B1. The data set can be described thus: self-cleavage, relative activity (ratio to wild type); higher = more cleavage; in vitro, sequencing; the parent is a self-cleaving ribozyme.
Take GUUAACGGUCAUAGGCCAUGGUAACUAGGAGCACCAUUUCGCUGCCAGUGAAGAAGUGAACAAAGAAAAUCUGGGCCAGGCAGGCAUCAAAAGAAAUAGUCUUGCGCUCAACCAGAAAGUCUGUAAUCACUUUAAGGGUA: the self-cleavage was found to be 1.24.

Regarding GUUAACGGUCAUAGGCCAUGGUAACUAGGAGCACCAUUUCGCUGCCAGUGAAGAAAUGAACAAAGAAAGUCUGGGCCAGGCAGGCACCAAAAGAAAUAGUCUUGCGCUCAACCAGAAAGUCUGUAAUCAUUGUAAGGGUA, the self-cleavage is 0.94.

Consider GUUAACGGUCAUAGGCCAUGGUAACUAGGAGAACCAUUUCGCUGCCAGUGAAGAAAUGAACAAAGAAAAUCUGGGCCAGGCAGGCAACAAAAGAAAUAGUCUUGCGCUCAACCAGAAAGUCUGUAAUCAUUUUAAGGGUA, for which the self-cleavage was 1.86.

Turning to GUUAACGGUCAUAGGCCAUGGUAACUAGGAGCACCAUUUCGCUGCCAGUGAAGAAAUGAACAAAGAAAAUCUGGGCUAGGCAGGCAUCAAAAGAAGUAGUCUUGCGCUCAACCAGAAAGUCUGUAAUCAUUUUAAGGGUA, the self-cleavage was 2.55.

Regarding GUUAACGGUCAUAGGCCAUGGUAACUAGGAGCACCAUUUCGCUGCCAGCGAAGAAAUGAACAAAGAAAAUCUGGGCCAGGCAGGCAUCAAAAGAAAUAGUCUUGCGCUCAACCAGAGAGUCUGUAAUCAUUUUAAGGGUA, the self-cleavage came to 1.9.

Regarding GUUAACGGUCAUAGGCCAUGGUAACUAGGAGCACCAUUUCGCUGCCAGUGAAGAAAUGAUCAAAGAAAAUCUGGGCCAGGCAGGCAUCAAAAGAAAUAGUCUUGCGCUCAACCAGAAAGUCUGUAAUCAUUUUUAGGGUA, the self-cleavage is 1.56.

In the case of GUUAACGGUCAUAGGCCAUGGUAACUAGGAGCACCAUUUCGCUGCGAGUGAAGAAAUGAACAAAGAAAUUCUGGGCCAGGCAGGCAUCAAAAGAAAUAGUCUUGCGCUCAACCAGAAAGUCUGUAGUCAUUUUUAGGGUA, the self-cleavage worked out at 0.

Turning to GUUAACGGUCAUAGGCCAUGGUAACUAGGAGCACCAUUUCGCUGCCAGUGAAGAAAUGAACAAAGAAAAUCUGGGCCAGGCAGGCAACAAAAGAAAUAGUCUUGCGCUCAACUAGAAAGUCUGUAAUCACUUUAAGGGUA, the self-cleavage is 0.04.

GUUAACGGUCAUAGGCCAUGGUAACUAGGAGCACCAUUUCGCUGCCAGUGAAGAAAUGAACAAAGAAAGUCUGGGCCAGGCAGGGAUCCAAAGAUAUAGUCUUGCGCUCAACCCGAAAGUCUGUAAUCAUUUUAAGGGUA: the self-cleavage came out at 0.01.

For GUUAACGGUCAUAGGCCAUGGUAACUAGGAGCACCAUUUCGCUGCCAGUGAAGAAAUGAACAAAGAAAAUCUGGGCCAGGCAGGCAUCAAAAGAAAUAGUCUUGCGCUCGGCCAGAAAGUCUGUAAUCAUUUUAAGGGUA, the self-cleavage stood at 0.02.

With GUUAACGGUCAUAGGCCAUGGUAACUAGGAGUACCAUUUCGCUGCCAGUGAAGAAAUGAACAAAGAAAAUCUGGGCCAGGCAGGCAUCAAAAGAAAUAGUCCUGCGCUCAACCAGAAAGUCUGUAAUCAUUUUAAGGGUA, the self-cleavage came to 1.14.

GUUAACGGUCAUAGGCCAUGGUAACUAGGAGCACCAUUUCGCUGCCAGUGAAGAAAUGAACAGAGAAAAUCUGGGCCAGGCAGGCAUCAAAAGAAAUAGUCUUGCGCUCAACCAGAAAGACUGUAAUCAUUUUAAGGGUA: the self-cleavage was found to be 1.2.

With GUUAACGGUCAUAGGCCAUGGUAACUAGGAGCACCAUUUCGCUGCCAGUGAAGAAAUGAACAAAGAAAAUCUGGGCCAGGCAGGCAUCAAAAGAAGUAGUCUUGCGCUCAACCAGGAAGUCUGUAAUCAUUUUAAGGGUA, the self-cleavage worked out at 0.16.

GUUAACGGUCAUAGGCCAUGGUAACUAGGAGCACCACUUCGCUGCCAGUGAAGAAAUGAACAAAGAAAAUCUGGGCCAGGCAGGCAUCAAAAGAAAUAGUCCUGCGCUCAACCAGAAAGUCUGUAAUCAUUUUAUGGGUA: the self-cleavage came out at 1.54.

With GUUAACGGUCAUAGGCCAUGGACACUAGGAGCUCCAUUUCGCUGCCAGUGAAGAAAUGAACAAAGAGAAUCUGGGCCAGGCAGGCAUCAAAAGAAAUAGUCUUGCGCCCAACCAGAAAGUCUGUAAUCAUUUUAAGGGUA, the self-cleavage stood at 0.05.

For GUUAACGGUCAUAGGCCAUGGUAACUAGGAGCACCAUCUCGCCGCCAGUGAAGAGAUGAACAAAGAAAAUCUGGGCCAGGCAGGCAUCAAAAGAAAUAGUCUUGCGCUCAACCAGAAAGUCUGUAAUCAUUUUAAGGGUA, the self-cleavage came to 1.87.

GUUAACGGUCAUAGGCCAUGGUAACUAGGAGCACCAUUUCGCUGCCAGUGAAGAAAUGAACAAAGAAAAUCUGGGCCAGGCAGGCAUCAAAGGAAAUAGUCUUGCGCUCAACCAGAAAGACUGUAAUCAUUUUAAGGGUA: the self-cleavage amounted to 2.03.

For GUUAACGGUCAUAGGCCAUGGUAACUAGGAGCACCAUUUCGCUGCCAGUGAAGAAACGAACAAAGAAAAUCUGGGCCAGGCAGGCAUCAAAAGAAAUAGUCUUGCGCCCAACCAGAAAGUCUGUAAUCAUUUUAAGGGUA, the self-cleavage stood at 0.02.

Consider GUUAACGGUCAUAGGCCAUGGUAACUAGGAGCACCAUUUCGCUGCCAGUGAAGAAAUGAACAAAGGAAAUCUGGGCUAGGCAGGCAUCAAAGGAAAUAGUCUUGCGCUCAACCAGAAAGUCUGUAAUCAUUUUAAGGGUA, for which the self-cleavage turned out to be 1.07.

As for GUUAACGGUCAUAGGCCAUGGUAACUAGGAGCACCAUUUCGCUGCCAGUGAAGAAGUGAACAAAGAAAAUCUGGGCCAGGCAGGCACCAAAAGAAAUAGUCUUGCGCUCAACCAGAAAGUCUGUAAUCAUUUUAAGGGUA, the self-cleavage is 0.48.

As for GUUAACGGUCAUAGGCCAUGGUAACUAGGAGCAACAUUUCGCAGCCGGUGAAGAAAUGAACAAAGAAAAUCUGGGCCAGGCAGGCAUCAAAAGAAAUAGUCUUGCGCUCAACCAGAAAGUCUGUAAUCAUUUUAAGGGUA, the self-cleavage is 1.

Turning to GUUAACGGUCAUAGGCCAUGGUAACUAGGAGCACCAUUUCGCUGCCAGCGAAGAAAUGAACAAAGAAAAUCUGGGCCAGGCAGGCAUCAAAAGAAAUAGUCUUACGCUCAACCAGAAAGUCUGUAAUCAUUUUAAGGGUA, the self-cleavage was found to be 0.04.

For the variant GUUAACGGUCAUAGGCCAUGGUAACUAGGAGCACCAUUUCGCUGCCAGUGAAGAAAUGAGCAAAGAAAAUCUGGGCCAGGCAGGCAUCAAAAGAAAUAGUCUUGCGCUCGACCAGAAAGUCUGUAAUCAUUUUAAGGGUA, the self-cleavage came to 0.1.

As for GUUAACGGUCAUAGGCCAUGGUAACUAGGAGCACCAUUUCGCUGCCAGUGAAGAAAUGAACGAAGAAAAUCUGGGCCAGGCAGGCAUCAAAAGAAAUAGUCUUGCGCUCAGCCAGAAAGUCUGUAAUCAUUUUAAGGGUA, the self-cleavage came out at 0.01.

For GUUAACGGUCAUAGGCCAUGGUAACUAGGAGCACCAUUUCGCUGCCAGUAAAGAAAUGAACAACGAAAAUCUGGGCCAGGCAGGCAUCAAAAGAAAUAGUCUUGCGCUCAACCAGAAAGUCUGUAAUCAUUUUAAGGGUA, the self-cleavage is 1.18.

For GUUAACGGUCAUAGGCCAUGGUAACUAGGAGCACCAUUUCGCUGCCAGUGAAGAAAUGAACAAAGAAAAUCUGGGCCAGACAGGCAUCAAAAGAAAUAGUCUUGCGCUCAACCAGAAGGUCUGUAAUCAUUUUAAGGGUA, the self-cleavage came to 0.11.

For GUUAACGGUCAUAGGCCAUGGUAACUAGGAGCACCAUUUCGCUGCCAGUGAAGAAAUGAACAAAGAAAAUCUGGGCCAGGCAGGCAUCAAAAGAAAUAGUCUUGCGCUCAACCAGAAAGUCUGUAAUAAUCUUAAGGGUA, the self-cleavage worked out at 0.71.

With GUUAACGGUCAUAGGCCAUGGUAACUAGGAGCACCAUUUCGCCGCCAGUGAAGAAAUGAACAAAGAAAAUCUGGGCCAGGCAGGCAUCAAAAGAAAUAGUCUUGCGCUCAACCAGAAAGCCUGUAAUCAUUUUAAGGGUA, the self-cleavage amounted to 0.28.

For GUUAACGGUCAUAGGCCAUGGUAACUAGGAGCACCAUUGCGCUGCCAGAGAAGAAAUGAACAAAGAAAAUCUGGGCCAGGCAGGCAUCAAAAGAAAUAGUCUUGCGCUCAACCAGAAAGUCUGUAAUCAUUUUAAGGGUA, the self-cleavage came to 0.87.

As for GUUAACGGUCAUAGGCCAUGGUAACUAGGAGCACCAUUUCGCUGCCAGCGAAGAAAUGAACAAAGAAAAUCUGGGCCAGGCAGGCAUCAAAAGAAAUGGUCUUGCGCUCAACCAGAAAGUCUGUAAUCAUUUUAAGGGUA, the self-cleavage amounted to 0.54.

Consider GUUAACGGUCAUAGGCCAUGGUAACUAGGAGCACCAUUUCGCUGCCAGUGAAGAAAUGAACAAAGAAAAUCUGGGCCAGGCAGGCAUCAAAAGAAAUAGUCUUGCGCUCAACCAGAAAGUCUGUAGUCACUUUAAGGGUA, for which the self-cleavage came to 0.65.

Consider GUUAACGGUCAUAGGCCAUGGUAACUAGGAGCACCAUUUCGCUGCCAGUGAAGAAAUGAACAAAGAAAAUCUGGGCCUGGCAGGCAUCAAAAGAAAUAGUCUUGCGCUCAACCAGAAGGUCUGUAAUCAUUUUAAGGGUA, for which the self-cleavage is 0.05.

As for GUUAACGGUCAUAGGCCAUGGUAACUAAGAGCACCAUUUCGCUGCCAGUGAAGAAACGAACAAAGAAAAUCUGGGCCAGGCAGGCAUCAAAAGAAAUAGUUUUGCGCUCAACCAGAAAGUCUGUAAUCAUUUUGAGGGUA, the self-cleavage came to 0.2.

With GUUAACGGUCAUAGGCCAUGGUAACUAGGAGCACCAUUCCGCUGCCAGUGAAGAAAUGAACAAAGAAAAUCUGGGCCAGGCAGGCAUCAAAAGAAAUAGUCUUGCGCUCAACCAGAAAGUCUGUAAUCAUUCUAAGGGUA, the self-cleavage came to 1.75.

As to GUUAACGGUCAUAGGCCAUGGUAACUAGGAGCACCAUUUCGCUGCCAGUGAAGAAAUGAACAAAGAAAAUCUGGGCCAGGCAGGCAUCAAAGGAAAUAGUCUUGCGCUCAACCAGAAAGUCUGUAAUCACUUUAAGGGUA, the self-cleavage was 1.03.

As for GUUAACGGUCAUAGGCCAUGGUAACUAGGAGCACCAUUUCGCUGCCAGUGAAGAAAUGAACAAAGAAAAUCUGGGCCAGGCAGGCAUCAAAAGAAAUAGUCUUGCGCUCAACCUGAAAGUCUGUAAUCAUCUUAAGGGUA, the self-cleavage turned out to be 0.05.

GUUAACGGUCAUAGGCCAUGGUAACUAGGAGCACCAUUUCGCUGCCAGUGAAGAAAUGAACAAAGAAAAUCUGGGCCAGGCAGGCAUCAAAAAAAAUAGUCUUGCGCUCAACCAGAAGGUCUGUAAUCAUUUUAAGGGUA: the self-cleavage worked out at 1.23.

With GUUAACGGUCAUAGGCCAUGGUAACUAGGAGCACCAUUUCGCUGCCAGUGAAGAAAUGAACAAUGAAAAUCUGGGCCAGGCAGGCAUCAAAAGAAAUAGUCUUGCGCUCAACCAGAAAGUCUGCAAUCAUUUUAAGGGUA, the self-cleavage was determined as 0.78.

On to GUUAACGGUCAUAGGCCAUGGUAACAAGGAGCACCACUUCGCUGCCAGUGAAGAAGUGAACAAAGAAAAUCUGGGCCAGGCAGGCAUCAAAAGAGAUAGUCUUGCGCUCAACCAGAAAGUCUGUAAUCAUUUUAAGGGUA, for which the self-cleavage worked out at 1.52.

Regarding GUUAACGGUCAUAGGCCAUGGUAACUAGGAGCACCAUUUCGCUGCCAGUGAAGAAAUGAACAAAGAAAAUCUGGGCCAGGCAGGCAUCAGAAGAAAUAGUCUCGCGCACAACCGGAAAGUCUGUAAUCAUUUUAAGGGUA, the self-cleavage is 0.01.

Consider GUUAACGGUCAUAGGCCAUGGUAACUAGUAGCACCAUUUCGCUGCCAGUGAAGAAAUGAACAAAGAAAAUCUGGGCCAGGCAGGCAUCAAAAGAGAUAGUCUUGCGCUCAACCAGAAAGUCUGUAAUCAUUUUAAGGGUA, for which the self-cleavage is 2.07.
